The text below walks through data of PubChem BioAssay AID1240 (Sanford-Burnham Center for Chemical Genomics, 2008).

Among all 50,000 compounds or so, about 800 (1.6%) showed an effect of 50% or more. The list shows a part of the results.

This test concerns the target Bcl-2-like protein 10 (Homo sapiens) (UniProt Q9HD36). As to the kind of experiment: TR3 peptide-Bcl-B binding displacers, biochemical primary FP assay, phenotype converters (AID 1240).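 Also: 0% = Bcl-B with tracer peptide and DMSO and 100% = tracer peptide lacking Bcl-B.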 Particulars: GST-Bcl-B / FITC-TR3 peptide fluorescence polarization; stronger effect = higher value; compound at 3.75 mg/L.
Sequence of UniProt Q9HD36 (Q9HD36 whole entry, looked up): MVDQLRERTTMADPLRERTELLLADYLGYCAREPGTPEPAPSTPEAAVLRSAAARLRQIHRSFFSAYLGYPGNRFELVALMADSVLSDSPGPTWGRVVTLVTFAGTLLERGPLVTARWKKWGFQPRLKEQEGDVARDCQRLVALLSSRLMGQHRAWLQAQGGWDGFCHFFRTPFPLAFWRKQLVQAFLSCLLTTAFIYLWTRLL
`CCC(C(=O)Nc1ccc(C)cc1C)c1ccccc1` (stereo unspecified): the displacement was -1.5%. As for `COc1cccc(/C=C2\C(=O)N(c3ccc(S(N)(=O)=O)cc3)N=C2C)c1`, the displacement is -3.5%. In the case of `O=C1C(Cl)=C(N2CCCCC2)C(=O)N1c1ccc(Cl)c(Cl)c1`, the displacement was -12.3%.

`O=C(Oc1ccc(/C=C2/SC(=S)N(c3ccccc3)C2=O)cc1)c1cccc([N+](=O)[O-])c1`: the displacement was -7.6%. As for `CC1=C(C#N)C(c2ccc(OCc3ccccc3)cc2)C2=C(CC(c3ccc(Cl)cc3)CC2=O)N1` (stereo unspecified), the displacement was -2%. Take `CCOC(=O)c1ccc2[nH]c(C)c(CCC(C)=O)c(=O)c2c1`: the displacement is -6.1%. For the compound `CCOc1ccc(NC(=O)/C=C/c2ccc([N+](=O)[O-])cc2)cc1`, the displacement was -2.5%. `Nn1c(SCC(=O)c2ccc([N+](=O)[O-])cc2)nc2ccccc2c1=O`: the displacement was -1%. With `CCOC(=O)c1ccc(-c2ccc(/C=C3/SC(N)=NC3=O)o2)cc1`, the displacement is -27.3%. Consider `O=C(Nc1ccc(Cl)cn1)c1ccccc1-c1ccccc1`, for which the displacement is -3.7%. As for `O=C(Nc1ccccc1F)c1ccc(CSc2ccc(Cl)cc2)cc1`, the displacement was determined as 6%. On to `Cc1c(NC(=O)C(c2ccccc2)c2ccccc2)cccc1[N+](=O)[O-]`, for which the displacement was -6.3%. `Cc1ccc(N2C(=O)c3ccccc3C2=O)cc1C`: the displacement was 19.4%. On to `CCCOC(=O)c1c(N)sc2c1CCCCC2`, for which the displacement came out at 4.4%. In the case of `Cc1cc(C)c(OCC(=O)Nc2ccc(I)cc2)c(C)c1`, the displacement was 16.4%. With `Cc1ccccc1NC(=O)C(=O)NNC(=O)c1ccccc1C`, the displacement was -8.5%.

Consider `Cc1cccc(OCC(=O)NC2C3CC4CC(C3)CC2C4)c1` (stereo unspecified), for which the displacement worked out at 8%.

Consider `CC1=C(C(=O)OC2CCCCC2)C(c2ccco2)C2=C(CC(C)(C)CC2=O)N1` (stereo unspecified), for which the displacement was -4.9%. `CC1CCc2c(sc(NC(=O)c3ccc(Cl)c(Cl)c3)c2C(N)=O)C1` (stereo unspecified): the displacement is -5.8%. Under `COc1cc(C=Nc2ccc(Nc3ccccc3)cc2)ccc1OCc1ccccc1` stands 26.2%. Turning to `O=C(Nc1ccc(Cl)cn1)c1cc2ccccc2o1`, the displacement turned out to be 13%. In the case of `COc1ccc(C(=O)O/N=C(\c2ccncc2)c2ccc([N+](=O)[O-])cc2)cc1OC`, the displacement turned out to be 0.6%. As to `Cc1cccc(NC(=O)C(=O)NCc2ccccc2Cl)c1`, the displacement is 4.9%.

As for `COc1ccc(C(=O)NC(=S)NCc2ccco2)cc1`, the displacement was determined as 9.4%.

For the compound `COc1cc(NC(=O)c2ccccc2Cl)ccc1NC(=O)c1ccco1`, the displacement stood at 27.4%.

As to `COc1cccc(/C=C2\C(=O)N(c3cccc(C(=O)O)c3)N=C2C)c1`, the displacement was -7%.

`CC(C)OC(=O)c1c(NC(=O)c2ccc([N+](=O)[O-])cc2Cl)sc2c1CCCCC2`: the displacement is -10.4%. As to `Cc1ccc(S(=O)(=O)Nc2ccc(Cl)cc2)cc1[N+](=O)[O-]`, the displacement worked out at 10%. For `CCOc1ccc(/C=C2\C(=O)NC(=O)N(c3ccc(C)cc3)C2=O)cc1Br`, the displacement is -0.9%. As to `COc1ccc(C(=O)CCNc2ccc3c(c2)OCCO3)cc1`, the displacement came out at 6.2%. For the compound `C#CCOc1c(Cl)cc(C=O)cc1Cl`, the displacement is -9.8%. `Cc1oc(C)c2c(=O)cc(-c3ccc(O)cc3)cc(O)c12`: the displacement turned out to be 11.4%. With `O=C(NCCCN1CCOCC1)/C(=C/c1ccc(-c2ccc(Cl)cc2)o1)NC(=O)c1ccccc1` the figure was 8.1%. `O=C(Nc1ccc(-c2nc3ccccc3o2)c(O)c1)c1ccc(Cl)cc1`: the displacement came out at 15.4%. Turning to `COc1cccc(N=c2ssc3c2-c2cc(C)c(C)cc2NC3(C)C)c1`, the displacement was 1.4%. Consider `O=C(NC12CC3CC(CC(C3)C1)C2)c1ccccc1`, for which the displacement was -5.5%. With `COc1ccccc1N1CCN(/N=C/C=C\c2ccco2)CC1` the figure was -6.1%; with `COC(=O)c1c(NC(C)=O)sc(/C(C)=C/C#N)c1C`, 0.9%. Turning to `COc1ccc(-c2nnc(/N=C/c3c(C)[nH]n(-c4ccc(C)c(C)c4)c3=O)s2)cc1`, the displacement is -2.9%.

On to `O=C(Nc1ccc(Cl)cn1)C(Sc1ccccc1)c1ccccc1` (stereo unspecified), for which the displacement was 7.7%. Turning to `NNC(=O)C1(c2ccccc2)CCCC1`, the displacement came to 9.8%. Turning to `O=C(c1ccccc1)C(Sc1ncn[nH]1)c1ccccc1` (stereo unspecified), the displacement amounted to 14.3%.

Turning to `Cc1ccc(N2NC(=O)/C(=C/c3ccc(O)c(O)c3)C2=O)cc1`, the displacement was -115%. On to `CC(C)CC(NC(=O)c1ccco1)C(=O)O` (stereo unspecified), for which the displacement came to 9.5%. Under `CCCCOc1ccc(-c2c(C#N)c(N)nc(SCc3ccc(Cl)cc3)c2C#N)cc1` stands 4%; under `CCOc1cc(OCC)cc(C(=O)Nc2ccc(Cl)c(Cl)c2)c1`, 10%. As for `CC(C)CCNC(=O)C(=O)NCC(C)O` (stereo unspecified), the displacement amounted to 12.1%.

Regarding `O=C(COc1ccccc1[N+](=O)[O-])NC(c1ccccc1)c1c(O)ccc2ccccc12` (stereo unspecified), the displacement was 1.6%. As to `CN(Cc1ccccc1)C(=O)c1ccc(CN2CCc3ccccc3C2)cc1`, the displacement was -2%. Consider `O=C1CN(C(=O)c2cccc(Cl)c2)C(c2ccccc2Cl)c2cc(Br)ccc2N1` (stereo unspecified), for which the displacement was 3.1%. With `Nc1nonc1N=Cc1cc(Br)ccc1O` the figure was -12.8%; with `COC(=O)c1ccc(N(C(=O)C(F)(F)F)C2C=CS(=O)(=O)C2)cc1` (stereo unspecified), 15.1%. Under `COc1cccc(CN2CCN(Cc3ccccn3)CC2)c1` stands -24.8%; under `CCOC(=O)c1c(C)[nH]c(N=Nc2ccccc2Cl)c1C`, 0.3%; under `COC(=S)N/C(=N/S(=O)(=O)c1ccc(Cl)cc1)c1ccccc1`, 14%. Under `Clc1cccc(Cl)c1OCCCN1CCCC1` stands -4%. Turning to `O=S(=O)(c1ccc2ccccc2c1)N1CCc2ccccc21`, the displacement is 10.5%. Regarding `O=C1/C(=C\c2ccc(-c3cccc([N+](=O)[O-])c3)o2)SC(=S)N1C1CCS(=O)(=O)C1` (stereo unspecified), the displacement is 7.1%.

Consider `CN(C)c1ccc(C2C(C(=O)/C=C/c3ccccc3)=C(O)C(=O)N2CCCCCC(=O)O)cc1` (stereo unspecified), for which the displacement worked out at 3.4%. As for `O=C(N/N=C/c1ccco1)c1ccccn1`, the displacement is -6.5%.

Turning to `CCC(C)(C)C1CCc2c(sc(NC(=O)C(C)C)c2C#N)C1` (stereo unspecified), the displacement is -8.2%. Under `CSC(=O)NC1(Cc2ccc(O)cc2)CCCCC1` stands -4.1%. Under `C#CCn1cc(/C=C2\C(=O)NC(=O)N(c3ccc(C)cc3)C2=O)c2ccccc21` stands 66.4%. In the case of `COc1ccc(C(=O)CC(c2ccccc2)C2CCCCC2=O)cc1` (stereo unspecified), the displacement was found to be 3.8%. Under `COc1ccc(OC)c(C2C3=C(Nc4c2c(=O)n(C)c(=O)n4C)c2ccccc2C3=O)c1` (stereo unspecified) stands 8.5%; under `COc1ccc(-c2nnc(SCC(=O)NN)n2-c2ccccc2)cc1`, -1%. `O=C1c2ccccc2C(=O)N1c1ccc2nc(SCc3ccccc3)sc2c1`: the displacement was -2.2%.

With `CCN(CC)CCC(=O)c1ccc2c(c1)OCO2`, the displacement was -5.3%. As for `COc1cc([N+](=O)[O-])cc(/C=C2/C(=O)NC(=O)N(c3cccc(C)c3)C2=O)c1O`, the displacement turned out to be 1.7%. For the compound `Cc1cc(C)n(S(=O)(=O)c2ccc(Br)cc2C)n1`, the displacement was 3.3%. On to `Cc1c(Cl)c(C(F)(F)F)nn1CC(=O)Nc1ccc(F)cc1F`, for which the displacement is 11.4%.
